Test results published in PubChem BioAssay AID445 (National Center for Advancing Translational Sciences (NCATS), 2006).
The whole screen tested about 110,000 compounds, of which about 40 (0.04%) were called active. The inconclusive results got no clear call from the source; some entries with a clear call stand among them for comparison. The call rests on the fitted dose curve; in most records, active means well fitted curve in the direction sought with a large enough effect in the signal ratio (not every such curve was filed as active); inconclusive means small, poorly fitted or top-dose-only effect, or a change in a side signal; inactive means flat fitted curve, though single readings scatter; the % refers to the signal ratio. A potency beside an inconclusive call is a rough fit, not a confirmed value.

test: IkB Signaling; details: ABC-DLBCL IkBa-CBG/CBR dual luciferase ratio (green luciferase fused to IkBa over red control in OCI-Ly3 lymphoma cells), 4 h; IkBa stabilization activation: at 57.1 µM (top of the series), scaled: untreated 0%, proteasome inhibitor 100% unless noted;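 on IkBa stabilization activation: 0% = basal untreated cells and 100% = reference inhibitor full response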
In short: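 Luminescence ratio of IκBα-fused green versus native red beetle luciferase in OCI-Ly3 cells, 4 h post-doxycycline with compound; red signal alone, scaled from basal (0%) to zero light (-100%), flagged nonspecific or cytotoxic effects.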
Potency means the concentration at half of the fitted maximal effect.

Row | Compound | IkBa stabilization activation | Potency
1 | Fc1c(F)c(F)c(CSc2nc3ccccc3[nH]2)c(F)c1F | inactive | –
2 | CCN(CC)C(=S)SSC(=S)N(CC)CC | – | inconclusive: 12.6 µM [rising, partial curve]
3 | Clc1ccc(CCNc2ncnc3c2c(-c2ccccc2)cn3-c2ccccc2)cc1 | inconclusive: 0.426% [signal inhibitor] | –
4 | CSc1ncnc2c1ncn2CC(=O)[C@H]1CC[C@H]2[C@H]3CCC4=CC(=O)CC[C@@]4(C)[C@@H]3CC[C@@]12C | inconclusive: -3.39% [signal inhibitor] [at 11.4 µM, scaled: untreated 0%, proteasome inhibitor 100%] | –
5 | Cc1ccc(Nc2c(-c3ccc(C)cc3)nc3cnccn23)cc1 | inconclusive: 5.41% [signal inhibitor] | –
6 | N#Cc1cccc(NC(=O)N2CCC(c3nc4c(nnn4Cc4cccc(Cl)c4)c(=O)[nH]3)CC2)c1 | inconclusive: 2.42% [signal inhibitor] | –
7 | COC(=O)c1ccccc1 | inactive | –
8 | Cc1ccccc1CS(=O)(=O)Cc1ccc(C(=O)NCCc2ccccc2)o1 | inconclusive: -0.716% [signal inhibitor] | –
9 | CC(=O)c1nnn(-c2nc(N3CCCC3)nc(N(c3ccccc3)c3ccccc3)n2)c1C | inactive | –
10 | CCCn1c(=O)n(-c2ccccc2)c(=O)c2sc3ccccc3c21 | inactive | –
11 | CCOc1ccc(CCNC(=O)CN2CCN(Cc3ccc(F)cc3Cl)C2=O)cc1OCC | inconclusive: -1.97% [signal inhibitor] | –
12 | CCOC(=O)CSc1nc2cc3c(cc2c(=O)n1CCCC(=O)NCc1ccc2c(c1)OCO2)OCO3 | inactive | –
13 | CCCOc1ccccc1C(=O)N1CCC(c2nc3ccccc3s2)CC1 | inconclusive: -2.7% [signal inhibitor] | –
14 | COC(=O)CN1C(=O)CSc2ccc(S(=O)(=O)Nc3ccc(Cl)cc3C)cc21 | inconclusive: 4.02% [signal inhibitor] | –
15 | CC(C)Cc1nn2c(=O)cc(COC(=O)c3cccc(NC(=O)CCc4ccccc4)c3)nc2s1 | – | inconclusive: 15.8 µM [signal inhibitor]
16 | C=Cc1ccc(CSc2nc(-c3ccc(OC)cc3)nc3c2Cc2c(CO)cnc(C)c2O3)cc1 | inactive | –
17 | CCNc1nc2c(c(=O)[nH]c(=O)n2C)n1Cc1ccc(F)cc1 | inactive | –
18 | COCCn1c(C)cc(C(=O)COC(=O)C23CC4CC(CC(O)(C4)C2)C3)c1C | inactive | –
19 | Cc1ccc2ccc(C(Nc3ccccn3)c3ccccc3)c(O)c2n1 (centres undefined) | inconclusive: 15.2% | –
20 | O=S(=O)(c1ccccc1)N1CCC2(CCCN(c3ccccc3)C2)CC1 | inactive: -0.518% [at 11.4 µM, scaled: untreated 0%, proteasome inhibitor 100%] | –
21 | Cc1ccc(CCNC(=O)C2CCCN(Cc3nc(-c4cccc(Cl)c4)oc3C)C2)cc1 (centres undefined) | inconclusive: -0.786% [signal inhibitor] | –
22 | O=C(Cc1ccc(F)cc1)N1CCC(c2nc3c(nnn3Cc3ccc(Cl)cc3)c(=O)[nH]2)CC1 | inconclusive: 1.24% [signal inhibitor] | –
23 | COc1ccccc1S(=O)(=O)Cc1ccc(C(=O)N2CCN(c3ccc(C)cc3)C(C)C2)o1 (centres undefined) | inconclusive: 5.51% [signal inhibitor] | –

Row | Compound | IkBa stabilization activation | Potency
24 | COc1ccc(-c2noc(C3CC(=O)N(c4cc(C)cc(C)c4)C3)n2)cc1 (centres undefined) | inconclusive: 1.51% [signal inhibitor] | –
25 | Cc1ccc2nc(-c3ccccn3)c(Nc3ccc(F)cc3)n2c1 | inconclusive: 5.96% [signal inhibitor] | –
26 | CCC(Oc1ccccc1)C(=O)Nc1ccccc1OCc1cc(=O)n2ccccc2n1 (centres undefined) | inactive | –
27 | COC(=O)c1sccc1NC(=O)CN1CCN(c2ccc(F)cc2)CC1 | inconclusive: 4.66% [signal inhibitor] | –
28 | CC1=C(C(=O)Nc2ccc(Cl)cc2)C(C(C)C)n2nc(SCc3cccc(C)c3)nc2N1 (centres undefined) | inactive | –
29 | CCOC(=O)C1CCCN(c2ncnc3c2cnn3-c2ccc(C)c(Cl)c2)C1 (centres undefined) | inconclusive: 2.54% [signal inhibitor] | –
30 | Cc1ccc(OCC(=O)Nc2ccc3c(c2)nc(CCN2CCOCC2)n3C)cc1 | inconclusive: -2.58% [signal inhibitor] | –
31 | CCOC(=O)c1ccc(NC(=O)c2oc3ccc4c(c3c2C)C(=O)CC(C)(CC)O4)cc1 (centres undefined) | inconclusive: 7.6% [signal inhibitor] | –
32 | Cn1c(=O)c2c(SCC(=O)NCc3ccco3)nc(-c3ccccc3Cl)nc2n(C)c1=O | inconclusive: 0.526% [signal inhibitor] | –
33 | Cc1ccc(S(=O)(=O)N=C2SCCCS2)cc1 | inconclusive: 7.91% [signal activator] | –
34 | O=C(NC(O)C(=O)c1ccccc1)c1cccs1 (centres undefined) | inconclusive: 5.64% [signal inhibitor] | –
35 | COC(=O)c1cccc(NC(=O)Cc2coc3cc(OC)ccc23)c1 | inconclusive: 9.45% [signal inhibitor] | –
36 | O=C(CCCCCn1c(SCC(=O)c2ccccc2)nc2ccccc2c1=O)NCc1ccco1 | inconclusive: 0.292% [signal inhibitor] | –
37 | CCOc1ccc(NC(=O)C(C)Sc2nnc3cc(C)c4ccccc4n23)cc1 (centres undefined) | inconclusive: -0.368% [signal inhibitor] | –
38 | Cc1nnc(NC(=O)c2nc(S(=O)(=O)Cc3ccccc3)ncc2Cl)s1 | inactive | –
39 | COc1cccc(-c2nn(C)c3sc(C(=O)NCc4ccc5c(c4)OCO5)cc23)c1 | inconclusive: 9.3% [signal inhibitor] | –
40 | Cc1cccc(NC(=O)C(=O)NCC(c2cccnc2)N2CCOCC2)c1 (centres undefined) | inconclusive: 0.513% [signal inhibitor] | –
41 | Cc1ccc(N2CCN(c3ccc(C)cc3)C2c2ccncc2)cc1 | inconclusive: 2.95% [signal inhibitor] | –
42 | CC(C)CCNC(=O)c1cccc(Nc2nc3ccccc3n3nnnc23)c1 | inconclusive: 4.04% [signal inhibitor] | –
43 | COc1ccc(Cl)cc1NC(=O)c1ccc2nc(Cc3ccccc3)oc2c1 | inconclusive: -0.00584% [signal inhibitor] | –
44 | COC(=O)c1ccccc1NC(=O)CN1CCC(C(=O)c2ccc3c(c2)OCCO3)CC1 | inconclusive: 8.35% [signal inhibitor] | –
45 | Cc1ccc(Cl)cc1N1CCN(C(=O)C2CCN(S(=O)(=O)c3c(C)nn(C)c3C)CC2)CC1 | inconclusive: 6.65% [signal inhibitor] | –
46 | CCCCNC(=O)C1CCCN(Cc2nc(-c3ccc(Cl)cc3)oc2C)C1 (centres undefined) | inconclusive: 0.313% [signal inhibitor] | –

Row | Compound | IkBa stabilization activation | Potency
47 | CCc1ccc(C(=O)c2cn(CC(=O)Nc3ccc(F)c(F)c3)c3cc(OC)c(OC)cc3c2=O)cc1 | inconclusive: 16.4% [signal inhibitor] | –
48 | CCOc1cccc2cc(-c3nc(-c4ccccc4C)no3)c(=O)oc12 | inconclusive: 15.3% [signal inhibitor] | –
49 | Cc1cc(F)ccc1NC(=O)CCS(=O)(=O)c1ccc2c(c1)NC(=O)CO2 | inactive | –
50 | O=C(Nc1ccc(Cl)cc1)C1CCCN(S(=O)(=O)c2ccc3[nH]c(=O)ccc3c2)C1 (centres undefined) | inconclusive: 3.09% [signal inhibitor] | –
51 | NC(=O)c1ccccc1NS(=O)(=O)Cc1ccc(Cl)cc1 | inactive | –
52 | CCOC(=O)c1ccccc1NC(=O)CSc1cn(CC(=O)N2CCCCC2)c2ccccc12 | inconclusive: 1.25% [signal inhibitor] | –
53 | CN1CCN(c2ccnc(-c3ccoc3)n2)CC1 | inactive: -1.94% [at 11.4 µM, scaled: untreated 0%, proteasome inhibitor 100%] | –
54 | Cc1nc2c(-c3ccccc3)c(C)nn2c(C)c1CCC(=O)NC(C)c1ccccc1 (centres undefined) | inconclusive: 3.13% [signal inhibitor] | –
55 | COc1cccc(CNC(=O)C2CCCN(S(=O)(=O)c3ccc4c(ccn4C)c3)C2)c1 (centres undefined) | inconclusive: 2.05% [signal inhibitor] | –
56 | CCOC(=O)c1cccc(NC(=O)c2oc3c(c2C)-c2[nH]ncc2CC3)c1 | inconclusive: 1.2% [signal inhibitor] | –
57 | CCCN(C(=O)c1cc2c(s1)-c1ccccc1OC2)c1ccccc1F | – | inconclusive: 6.31 µM [signal inhibitor, partial curve]
58 | CCOc1ccc(NC(=O)C(=O)NCCc2csc(-c3ccc(F)cc3)n2)cc1 | inconclusive: -4.07% [signal inhibitor] | –
59 | C=CCn1c(N)c(C(=O)OCCC)c2nc3ccccc3nc21 | inactive | –
60 | c1ccc(-n2ncc3c(NC4CCCC4)ncnc32)cc1 | inactive | –
61 | CCOc1ccc(/C=C/c2nc(C#N)c(N3CCN(c4ccc(OC)cc4)CC3)o2)cc1 | inactive | –
62 | Cn1cc(S(=O)(=O)N2CCCCCC2)cc1C(=O)N1CCN(c2ccc(F)cc2)CC1 | inconclusive: 2.74% [signal inhibitor] | –
63 | Cc1ccc(NC(=O)Cc2c(C(=O)O)c(C)cn2C)cc1Cl | inactive | –
64 | Cc1cc(C)c(NC(=O)CSc2ccnc(=O)[nH]2)c(C)c1 | inactive | –
65 | Cc1cccc(CNC(=O)c2oc3c(c2C)-c2nn(Cc4ccccc4Cl)cc2CC3)c1 | inconclusive: 0.261% [signal inhibitor] | –
66 | Cc1ccc(NCc2nnc(SCC(=O)OC3CCCCC3)o2)c(C)c1 | – | inconclusive: 39.8 µM [signal inhibitor, single point]
67 | O=C(COc1ccccc1)NCc1ccc2c(c1)CCN2C(=O)c1ccc(F)cc1 | inconclusive: 2.18% [signal inhibitor] | –
68 | O=C(Nc1ccccc1N1CCCC1)c1cc2ccccc2o1 | inconclusive: 2.82% [signal inhibitor] | –
69 | Cc1ccc(Cn2c(=O)c3cccnc3n(CC(=O)Nc3cccc(C(F)(F)F)c3)c2=O)cc1 | inconclusive: 0.0732% [signal inhibitor] | –
